Measured values taken from PubChem BioAssay AID662 (National Center for Advancing Translational Sciences (NCATS), 2007).
In all, about 71,000 compounds went through this assay and about 1,800 (2.5%) were called active. The shares of active, inactive and inconclusive entries below differ from those in the screen. Calls follow the shape of the dose curve; as a rule, active = well fitted activation curve with a large enough effect in the signal ratio, with a control signal flat (not every such curve was filed as active); inconclusive = small, poorly fitted or top-dose-only effect, or effect the other way, or a change in a side signal; inactive = flat fitted curve, though single readings scatter; the % refers to the signal ratio. Where the call is inconclusive, the potency comes from a doubtful curve fit.

Test: Cell signaling CRE-BLA (Fsk stim); as to activity change, negative = inhibition: % of control where 0% means no effect
Conditions: CHO CRE-bla reporter (cAMP response element driving beta-lactamase), forskolin EC10, beta-lactamase ratio; activity change, negative = inhibition: at 38.2 µM (top of the series) unless noted
In short: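 Using CellSensor CRE-bla CHO cells in Opti-MEM with 0.5% dialyzed FBS, compounds were titrated with EC10 NKH 477 for 3 h at 37 °C. CCF4 ratio (460/530 nm) gave %Activity; AC50 derived.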
Potency is read from the fitted curve at half-maximal effect; tags tell the direction and shape of the fitted curve.

Structure (SMILES)	Potency	activity change, negative = inhibition
O=c1c(O)c(-c2ccc(O)cc2O)oc2cc(O)cc(O)c12	inactive	
O=C(Nc1cnc2ccccc2c1)c1ccncc1	inactive	
Cc1cc(C(F)(F)F)c2c(=O)[nH]c(=O)n(Cc3ccccc3)c2n1	inconclusive: 25.1 µM [rising, single point]	
Cn1cc(/C(Cc2ccccc2)=N\O)c2ccccc21	inactive	
COc1cc(OC)c(C2N(c3ccc(Cl)cc3)C(=O)C3CCCN32)cc1OC (stereo not given)	inactive	
O=C(CN1CCC(n2nnc3cc(F)ccc32)CC1)Nc1ccc2c(c1)CCC2	inactive	
CN(CCOc1ccc(Cl)cc1)c1ccc(S(=O)(=O)N2CCCCC2)cn1	inconclusive: 0.501 µM [rising, full curve]	
CCOC(=O)C1=C(C)NC(C)=C(C(=O)OCC)C1C(=O)OCC(=O)c1ccc2c(c1)OCCO2	inconclusive: 3.16 µM [falling, single point]	
COc1ccc(CN2CCCCC2C(=O)Nc2ccc(OC)c(OC)c2)cc1OC (stereo not given)	inconclusive: 12.6 µM [rising, partial curve]	
C=CCn1c(SCc2cc(C(=O)OC)c(C)o2)nnc1-c1ccncc1		inconclusive: 16.8%
COc1ccc(OC)c(NC(=O)C2CCCNC2=O)c1 (stereo not given)	inconclusive: 0.398 µM [rising, single point]	
CCc1ccc(NC(=O)c2cc(-c3ccc(OC)cc3)on2)cc1		inconclusive: 5.98%
O=C(NCN1C(=O)C2C3C=CC(C3)C2C1=O)Nc1ccccn1 (stereo not given)		inconclusive: 7.26%
O=C(O)[C@@H]1CCCN1Cc1ccc2c(c1)OCO2		inactive: 5.75% [at 7.6 µM]
O=C(N1CCN(c2ccccn2)CC1)N1c2ccccc2Sc2ccccc21	active: 10 µM	
Clc1ccccc1OCCn1cnc2ccccc21		inconclusive: 5.14%
CCC(=O)NCCn1c(C)cc2ccccc21	active: 10 µM	
O=C1C2=C(Nc3cc([N+](=O)[O-])ccc3N2)O[C@@H]1c1ccc([C@H]2OC3=C(Nc4ccc([N+](=O)[O-])cc4N3)C2=O)cc1		inactive: -3.62% [at 7.6 µM]
COC(=O)C1=C(C)N(c2ccc(OC)c(OC)c2)C(=O)C1		inconclusive: -15.7%
Cc1ccc2cc3cc(C(=O)N4CCCCC4C)oc3nc2c1 (stereo not given)	inconclusive: 5.01 µM [rising, partial curve]	
CCOC(=O)c1c(C)oc2cc(Br)c(OC(=O)N3CCOCC3)cc12	inconclusive: 10 µM [rising, partial curve]	
Cc1cccc(-c2c3c(=O)n(C)c(=O)n(C)c3c3c(C)cc(C)nn23)c1	inconclusive: 3.98 µM [rising, partial curve]	
Cc1onc(-c2ccccc2Cl)c1C(=O)OCn1nnc2ccccc2c1=O		inconclusive: 41.6% [at 7.6 µM]
Cc1cc(C)n2nc(S(=O)(=O)NCCc3ccccc3)nc2n1	inactive	
O=C(CSc1nnc(C2CC2)n1Cc1ccccc1)N1CCN(S(=O)(=O)c2ccccc2)CC1		inconclusive: -9.71%
COC(=O)c1ccc(CSc2nnnn2-c2ccc(C)cc2C)o1		inconclusive: 28.4%
CC1(C)CC2CC(C)(CN2S(=O)(=O)c2ccc(N)cc2)C1 (stereo not given)	inactive	

Structure (SMILES)	Potency	activity change, negative = inhibition
CC(C)n1c(SCC(=O)Nc2ccc3c(c2)OCO3)nc2c1c(=O)n(C)c(=O)n2C	inconclusive: 7.94 µM [rising, partial curve]	
Cc1nc2sc(C(c3cccs3)N3CCC(C(N)=O)CC3)c(O)n2n1 (stereo not given)	inconclusive: 3.16 µM [rising, single point]	
Cc1cccc2cc(CN(Cc3cccs3)Cc3nnnn3Cc3ccccc3)c(=O)[nH]c12	inactive	
CCOc1ccc(-n2cc(C(=O)N3CCC(C)CC3)c3cc(OC)c(OC)cc3c2=O)cc1		inconclusive: 23.6%
CCCC(=O)Nc1cc(-c2nn(C)c(=O)c3ccccc23)ccc1N1CCCCC1	active: 2 µM	
CN(C)c1ncc2nc(-c3ccc(F)cc3)c(=O)n(-c3ccccc3)c2n1	active: 2.51 µM	
CC(=O)N1CN(Cc2ccccn2)Cc2c1sc1c2CCCC1	inactive	
c1ccc(CNc2ncnc3ccc(-c4ccoc4)cc23)cc1	inactive	
COc1ccc2c(=O)c3c(=O)n(Cc4ccco4)c(-c4ccccc4)nc3oc2c1	inconclusive: 10 µM [rising, partial curve]	
CCOc1ccc(NC(=O)CN(C)CC(=O)Nc2ccccc2C#N)cc1OCC		inconclusive: -3.73%
c1ccc(-c2cccc(N3CCC4(CCNCC4)CC3)c2)cc1	inconclusive: 25.1 µM [rising, single point]	
Cc1ccc(-c2nnn(CC(=O)NCC3COCCO3)n2)o1 (stereo not given)		inconclusive: -1.68%
CC(C)C1N=C2c3ccccc3N=C(SCC(=O)NCCc3ccc(S(N)(=O)=O)cc3)N2C1=O (stereo not given)		inconclusive: -2.57%
CCCNC(=O)N1CCN(S(=O)(=O)c2ccc(C)c(C)c2)CC1	inactive	
Cc1c(Nc2cc(=O)oc3ccccc23)c(=O)n(-c2ccccc2)n1C		inconclusive: -20%
COC(=O)c1[nH]c2ccc(C)cc2c1NC(=O)CCN1CCN(Cc2ccc3c(c2)OCO3)CC1	inactive	
C=C(C)COc1ccc(-c2nc(N)ncc2Oc2ccccc2OC)c(O)c1	inconclusive: 25.1 µM [falling, single point]	
Cc1ccc2c(c1)N[C@H](c1ccc(C(=O)O)cc1)c1cccn1-2		inactive: 0.808% [at 7.6 µM]
C(=N\n1cncn1)/c1ccc(N2CCOCC2)cc1	inactive	
CN1C[C@H](c2ccccc2)C(O)([C@]2(c3ccccc3)CN(C)C[C@@H](c3ccccc3)C2=O)[C@H](c2ccccc2)C1 (stereo not given in full)		inactive: 9.93% [at 7.6 µM]
COCCCn1cnc2oc3nc4ccccc4nc3c2c1=O	inconclusive: 5.01 µM [rising, single point]	
O=C(CCc1nc(-c2ccccc2F)no1)NCCN1CCOCC1		inconclusive: -13.1%
Cc1nnc(N2CCc3ccccc3C2)[nH]c1=O	inconclusive: 5.01 µM [falling, single point]	
O=C(Nc1cccc(-c2cn3cccnc3n2)c1)c1ccc(Br)o1	inconclusive: 15.8 µM [rising, partial curve]	
O=C(NC1CCCCCC1)C1CCCN(S(=O)(=O)c2cccs2)C1 (stereo not given)		inconclusive: -1.16%
O=C(Cc1ccccc1)Nc1ccc(-c2nnc(-c3ccco3)o2)cc1	inconclusive: 0.794 µM [rising, full curve]	
COC(=O)CSc1nnc(-c2ccncc2)o1	inactive	

Structure (SMILES)	Potency	activity change, negative = inhibition
O=C1CSC(c2cn(-c3ccccc3)nc2-c2ccccc2)N1Cc1ccco1 (stereo not given)	inactive	
Cc1cn2nc(N)c3ccccc3c2n1	inconclusive: 12.6 µM [rising, single point]	
Cc1cccc(N2CCN(C(=O)c3cc4c(=O)[nH]c5ccccc5c4n3C)CC2)c1C		inconclusive: -7.56%
Cc1ccc(Cn2c(SCCN3CCOCC3)nc3c2c(=O)n(C)c(=O)n3C)cc1	inconclusive: 7.94 µM [rising, partial curve]	
Cc1nc(SCn2nnc3ccccc3c2=O)nc(C)c1C	active: 12.6 µM	
COc1ccc(-n2c(=O)cc(N3CCN(c4ccccc4)CC3)[nH]c2=O)cc1		inconclusive: -13.8%
CCOc1ccccc1NC(=O)CSc1nc2cccnc2n1C	inconclusive: 10 µM [rising, single point]	
CCOC(=O)/C=C1\CC(=O)Nc2nonc2N1	inactive	
O=C(/C=C\Nc1ccccn1)c1ccc(Cl)cc1	inactive	
CCC(=O)Nc1ccc2nc(C)n(CC(=O)Nc3ccccc3)c(=O)c2c1	inactive	
O=C(COC(=O)Cn1cnc2ccccc21)NCCC1=CCCCC1	inconclusive: 3.16 µM [falling, single point]	
COc1ccc(N(CC(=O)Nc2cc(OC)ccc2OC)S(C)(=O)=O)cc1		inconclusive: 7.48% [at 7.6 µM]
CCc1nnc(SCC(=O)NC2CCCCC2)nc1CC		inconclusive: 20.4%
OC1CCN(c2c3c(nc4cc(-c5cccc(F)c5)nn24)CCCC3)CC1	active: 3.16 µM	
COc1ccc(C2C(=O)N(C3CCCCCC3)CC(=O)N2Cc2ccccc2)cc1OC (stereo not given)	inactive	
CCOC(=O)c1cnc2ccc(Br)cc2c1NCCO	inconclusive: 0.0631 µM [rising, single point]	
COc1ccc(N(CC(=O)Nc2cccc(C)c2)S(=O)(=O)c2c(C)n[nH]c2C)cc1	inconclusive: 15.8 µM [falling, partial curve, poor fit]	
COc1ccccc1C(=O)OCC(=O)Nc1ccc(OC(F)F)cc1	inconclusive: 5.01 µM [falling, single point]	
CCOc1ccccc1N1CCN(S(=O)(=O)c2cccc3nsnc23)CC1	inactive	
COc1cccc(-c2nnc(SCC(=O)OC(C)C)n2N)c1	inactive	
Oc1ccc([C@@H]2CNCc3sccc32)cc1O	inactive	
CCOc1ccc(-n2nc(C(=O)NCCOC)c3ccccc3c2=O)cc1	inconclusive: 0.0631 µM [falling, full curve, poor fit]	
COc1cc(C2NC(=O)NC(C)=C2C(=O)OC2CCCCC2)cc(Br)c1O (stereo not given)	inconclusive: 12.6 µM [rising, single point]	
O=C(c1csnn1)N1CCC2(CCCN(c3ccncc3)C2)CC1	inactive	
COC(=O)[C@@]1(Cc2ccc(OC)cc2)[C@H]2c3cc(C(=O)N4CCCC4)n(Cc4cc(F)c(F)c(F)c4)c3C[C@H]2CN1C(=O)c1ccccc1	inactive	
Cc1cc(C)n(-c2ccc(Cl)c(C(=O)O)n2)n1	inconclusive: 3.98 µM [falling, single point]	
